Results from the supplement of paper PMC8821664.
Structures can show the parent of a compound that is named as a salt. The list shows a part of the results. Many values rest on one well or one pass, so single values are uncertain.

Test system: Beas-2B AQP5-HiBiT reporter cells
Assay: AQP5-HiBiT luminescence relative to vehicle (ratio to vehicle); higher = higher AQP5-HiBiT protein abundance
Conditions: 10 µM; 18 h
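Note: monoclonal Beas-2B line stably carrying CMV promoter-driven AQP5-HiBiT, 5,000 cells per well in 384-well plates, lytic HiBiT plus LgBiT NanoLuc luminescence, FDA-approved drug library screen.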

Structure (SMILES)	AQP5-HiBiT luminescence
O=C(NC[C@H]1CN(c2ccc(N3CCOCC3=O)cc2)C(=O)O1)c1ccc(Cl)s1 [Rivaroxaban]	0.73
O=C1CCc2ccc(OCCCCN3CCN(c4cccc(Cl)c4Cl)CC3)cc2N1 [Aripiprazole]	2.43
COc1cc2ncnc(Nc3ccc(F)c(Cl)c3)c2cc1OCCCN1CCOCC1 [Gefitinib (ZD1839)]	1
C[C@H]1C[C@H]2[C@@H]3CCC4=CC(=O)C=C[C@]4(C)[C@@]3(F)[C@@H](O)C[C@]2(C)[C@@]1(O)C(=O)CO [Betamethasone]	0.504
CCC[C@@H]1C[C@@H](C(=O)N[C@@H]([C@H]2O[C@H](SC)[C@H](OP(=O)(O)O)[C@@H](O)[C@H]2O)[C@H](C)Cl)N(C)C1 [Clindamycin phosphate]	0.886
Clc1ccccc1CN1CCc2sccc2C1 [Ticlopidine hydrochloride]	0.889
CN1C2CCC1CC(OC(=O)C(O)c1ccccc1)C2 (configuration not stated) [Homatropine Bromide]	0.895
CC(CCc1ccccc1)NCC(O)c1ccc(O)c(C(N)=O)c1 (configuration not stated) [Labetalol hydrochloride]	0.89
CC/C(=C(\c1ccccc1)c1ccc(OCCN(C)C)cc1)c1ccccc1 [Tamoxifen citrate]	0.834
Nc1nnc(-c2cccc(Cl)c2Cl)c(N)n1 [Lamotrigine]	1.33
CCCN1CCCC[C@H]1C(=O)Nc1c(C)cccc1C [Ropivacaine hydrochloride]	0.959
NC(=O)NO [Hydroxyurea]	0.9
Nc1ccc(/N=N/c2ccccc2)c(N)n1 [Phenazopyridine hydrochloride]	0.902
O=C(O)[C@@H](S)[C@@H](S)C(=O)O [Succimer]	0.639
CCN(CC)CCNC(=O)c1c(C)[nH]c(/C=C2\C(=O)Nc3ccc(F)cc32)c1C [Sunitinib Malate]	0.459
COc1cc2nccc(Oc3ccc(NC(=O)NC4CC4)c(Cl)c3)c2cc1C(N)=O [Lenvatinib (E7080)]	0.288
O=C(/C=C/c1cccc(S(=O)(=O)Nc2ccccc2)c1)NO [Belinostat (PXD101)]	2.56
COc1cc(Cc2cnc(N)nc2N)cc(OC)c1OC [Trimethoprim]	1.1
CC(=O)N(O)CCCCCNC(=O)CCC(=O)N(O)CCCCCNC(=O)CCC(=O)N(O)CCCCCN [Deferoxamine Mesylate]	0.808
Cc1ccc(NC(=O)C2(c3ccc4c(c3)OC(F)(F)O4)CC2)nc1-c1cccc(C(=O)O)c1 [Lumacaftor(VX 809)]	1.03
CN(C)c1nc(N(C)C)nc(N(C)C)n1 [Altretamine]	0.738
CCn1nc(C(=O)O)c(=O)c2cc3c(cc21)OCO3 [Cinoxacin]	1.32
O=C(Nc1ccc([N+](=O)[O-])cc1Cl)c1cc(Cl)ccc1O [Niclosamide]	14.1
C=CC(=O)N1CCC[C@@H](n2nc(-c3ccc(Oc4ccccc4)cc3)c3c(N)ncnc32)C1	0.364
CC(C)(C)NCC(O)COc1cccc2c1CC(O)C(O)C2 (configuration not stated) [Nadolol]	1.54
CO[C@H]1C[C@@H]2CC[C@@H](C)[C@@](O)(O2)C(=O)C(=O)N2CCCC[C@H]2C(=O)O[C@H]([C@H](C)C[C@@H]2CC[C@@H](O)[C@H](OC)C2)CC(=O)[C@H](C)/C=C(\C)[C@@H](O)[C@@H](OC)C(=O)[C@H](C)C[C@H](C)/C=C/C=C/C=C/1C [Rapamycin (Sirolimus)]	0.626
C[C@@H](O)[C@H]1C(=O)N2C(C(=O)O)=C(S[C@@H]3CN[C@H](CNS(N)(=O)=O)C3)[C@H](C)[C@H]12 [Doripenem Hydrate]	0.895
